Measured values published in PubChem BioAssay AID1346428 (National Center for Advancing Translational Sciences (NCATS), 2018).
Among all 48,000 compounds or so, about 1,200 (2.5%) were called active. Another 2% or so got no clear call; they are omitted.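 The calls were made as follows: active = activation of at least 60% and not above a set upper limit (about 1 call in 100 departs from these limits); inconclusive = activation of 40% to 60%, or above that upper limit; inactive = activation under 40%.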 This is one part of the list. Where a SMILES comes first, the peptide text is derived from it.

The compounds below were run against Probable G-protein coupled receptor 32 (Homo sapiens) (UniProt O75388) (assay: qHTS for Agonists of Human Resolvin D1 Receptor DRV1). Conditions: CHO-K1 GPR32 beta-arrestin PathHunter luminescence, 90 min; at 76.9 µM; stronger effect = higher value; zero percent set by DMSO-only wells.
In short: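 Readings come from a cell-based beta-arrestin complementation format: CHO-K1 GPR32 stable cells (2,500/well) treated 90 min with compounds, then beta-Gal substrate added for 1 h before chemiluminescence imaging.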
Also: 0% is about no effect.

Sequence of UniProt O75388 (O75388 whole entry, looked up): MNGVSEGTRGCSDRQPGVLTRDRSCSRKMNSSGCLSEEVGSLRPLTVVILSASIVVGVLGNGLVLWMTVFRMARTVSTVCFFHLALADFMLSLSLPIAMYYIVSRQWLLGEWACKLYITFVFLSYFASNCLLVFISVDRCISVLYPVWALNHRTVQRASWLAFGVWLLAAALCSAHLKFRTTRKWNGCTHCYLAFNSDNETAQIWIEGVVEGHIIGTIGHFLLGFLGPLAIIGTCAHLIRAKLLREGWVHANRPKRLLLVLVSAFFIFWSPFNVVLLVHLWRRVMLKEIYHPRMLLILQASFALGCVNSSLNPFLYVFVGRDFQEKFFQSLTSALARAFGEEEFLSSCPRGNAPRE

activation, active:
COc1ccc(Nc2nc3ccccc3nc2NS(=O)(=O)c2ccc(Cl)cc2)cc1OC 118%
O=S(=O)(Nc1cccc(F)c1)c1ccc2[nH]c3c(c2c1)CCCCC3 61.6%
Cc1ccc(CNc2ncnc3c2cnn3-c2ccc(C)cc2C)cc1 61.2%
CCc1ccc(NC(=O)C2CCCN(S(=O)(=O)c3cccc4nonc34)C2)cc1 (centres undefined) 89%

activation, inactive:
Cc1ccccc1OCc1nnc(SCc2cc(=O)c3ccc(C)c(C)c3[nH]2)n1C 33.3%
Cc1ccc(-c2cc3c(n2-c2ccc(F)cc2)CC(C)(C)CC3=O)cc1 -11%
Cc1cccc(NC(=O)CSc2nc3ccccc3c3nc(CCc4c(C)n[nH]c4C)nn23)c1 11.2%
COc1ccccc1CCNC(=O)C(=O)NCC(c1ccco1)S(=O)(=O)c1ccccc1 (centres undefined) -15.2%
CC(C)c1cnc2c(c1SCC(=O)O)c(=O)n(C)c(=O)n2C 5.68%
NS(=O)(=O)c1cc(C(=O)NN2C[C@H]3[C@H]4CCC(C4)[C@H]3C2)ccc1Cl 2.52%
COc1ccccc1-c1cc(C(=O)NCCc2ccccc2)no1 -10.6%
CC(=O)Nc1ccc(NC(=O)c2cnn(-c3ccccc3)c2C2CCN(C(=O)OC(C)(C)C)CC2)cc1 2.15%
CCC(C(=O)NCc1cccc(Br)c1)n1nc(C)c2c(C)n(-c3ccccc3)nc2c1=O (centres undefined) -9.81%
COc1ccc2c(c1)c1c(c(=O)n(-c3cccc(C)c3)c(=O)n1CC(=O)N1CCCC1)n2C -1.72%
Cc1cc(C)c2c(=O)cc(C(=O)Nc3ccc(S(=O)(=O)Nc4onc(C)c4C)cc3)oc2c1 -10.2%
CC(C)(C)OC(=O)N1CCC(c2c(C(=O)NCc3ccccn3)cnn2-c2ccc(F)cc2)CC1 2.66%
Cc1ccc2c(=O)cc(C(=O)Nc3c(C(=O)c4ccccc4)oc4ccccc34)oc2c1C 11.1%
COC(=O)[C@H](Cc1ccccc1)NC(=O)[C@@H](N)CC(=O)O (H-Asp-Phe-OMe) 23.1%
CCC(C)NC(=O)c1ccc2c(c1)N=C(C)c1cc(C)ccc1S2 (centres undefined) -1.56%
COc1ccc(-c2cc(-c3ccccc3)nc3c2COc2ccccc2-3)cc1 -3.57%
CCCn1cc(S(=O)(=O)c2cc(C)ccc2C)c(=O)c2cc(F)c(N3CCCCCC3)cc21 -31.4%
CC(C)CC(=O)Nc1nnc2n1CCS2 23.4%
CCN1C(=O)c2ccccc2Sc2ccc(NC(=O)Cc3ccc(OC)cc3)cc21 -27.2%
CCc1ccccc1N(c1nc(-c2ccc(OC)c(OC)c2)no1)c1nc(-c2ccc(OC)c(OC)c2)no1 -2.58%
COc1cccc(NC(=O)C(=O)NCCc2csc3nc(-c4ccccc4C)nn23)c1 1.17%
COc1ccc(-n2nnc(C(=O)Nc3ccccc3F)c2N)cc1 12.4%
CC(=O)NCc1nc2cccnc2n1Cc1ccccc1 -9.77%
CC(=O)c1cc(-c2ccccc2)n(CCC(=O)NCCc2ccccc2)c1C -18.5%
COC(=O)c1c(NC(=O)c2nc(SC)ncc2Cl)sc2c1CCCC2 1.51%
Cc1oc(-c2cccc(Cl)c2)nc1CSc1nnc(C)n2c1cc1occc12 -1.1%
Cc1cccc(CCNC(=O)c2ccc3c(c2)nc2n3CCCCC2)c1 -10.7%
Cc1nc2c(-c3ccc(F)cc3)c(C)nn2c(C)c1CCC(=O)N1CCN(c2ccc(F)cc2)CC1 4.07%
COc1ccc(Cl)cc1N(C)C(=O)Cc1noc2ccc(C)cc12 -12.5%
CCc1cccc(C)c1NC(=O)Cn1c(=O)n(-c2cccc(C)c2)c(=O)c2c1c1cc(C)ccc1n2C -1.08%
COc1ccccc1N1CCN(C(=O)Cn2cnc3sc(C)c(S(=O)(=O)N4CCC(C)CC4)c3c2=O)CC1 2.56%
C/C(=C1\CCOC(=O)S1)N(C=O)Cc1cnc(C)nc1N 0.97%
Cc1cccc(Cc2c(C)nc3nc(SCC(=O)NCc4ccc(F)cc4)nn3c2C)c1 -4.46%
COc1ccc(NC(=O)CCNS(=O)(=O)c2ccc3c(c2)CCN3C(=O)C2CC2)cc1Cl 4.09%
COc1ccc(-c2nnc(SCC(=O)Nc3cccc(Cl)c3C)nc2-c2ccc(OC)cc2)cc1 -46.5%
Cc1cc(C)n(-c2nc(C)c(C)c(=O)n2CC(=O)Nc2ccc(Cl)c(Cl)c2)n1 -10.4%
CC(=O)Nc1ccc(NC(=O)c2c(C)nn(-c3ccccc3)c2-n2cccc2)cc1 4.99%
Cc1ccc(CNC(=O)c2ccc3c(c2)nc2n3CCCC2)cc1 -13.4%
NC1CCN(O)C1=O (centres undefined) 8.92%
COc1ccc(-c2cc(OC(=O)c3cccc(C)c3)c3c(C)oc(C)c3c(=O)c2)cc1 -12.7%
Cc1cc(C)c(NC(=O)Cn2nnc(C(=O)Nc3ccc(F)cc3F)c2N)c(C)c1 1.02%
COc1cccc(NC(=O)c2nnn(Cc3ccc(OC)c(Br)c3)c2N)c1 5.26%
C1CCC(N=C(NC23CC4CC(CC(C4)C2)C3)N2CCOCC2)CC1 -3.67%
CCc1nn2c(=O)cc(COC(=O)C3CCCCC3)nc2s1 5.49%
CCOC(=O)c1cc(-c2ccccc2)n(CCCC(=O)Nc2ccc(C)cc2Cl)c1C -16.5%
CCn1cc(C(=O)NCc2ccccc2OC)c(=O)c2cc(S(=O)(=O)N3CCCCCC3)ccc21 -18.2%
CC(=O)N1CCN(c2ccc(O)cc2)CC1 42%
COc1ccc(CNC(=O)C2CCN(S(=O)(=O)c3ccc4nc5c(c(C(=O)O)c4c3)CC(C)CC5)CC2)cc1 (centres undefined) -15.6%
Cc1cc(C)c(NS(=O)(=O)c2cc(-c3cnc(C4CC4)o3)ccc2C)c(C)c1 -11%
Cc1ccsc1CCN1C(=O)N(c2ccc(F)cc2)C(=O)C1CC(=O)Nc1ccccc1 (centres undefined) -4.54%
COc1cccc(NS(=O)(=O)c2cc3c4c(c2)C(C)C(=O)N4CCC3)c1 (centres undefined) 9.34%
CCc1ccc(NC(=O)c2c(C(=O)Nc3ccccc3)sc3nc(C)cc(=O)n23)cc1 11.7%
CN1C(=O)Cc2cc(S(=O)(=O)CCC(=O)N3CCN(c4cccc(Cl)c4)CC3)ccc21 23.4%
COc1cccc(-c2cc(C(=O)N3CCN(c4ccc(F)cc4)CC3)no2)c1 -11.9%
CCOc1ccc(NC(=O)Cn2cnc3c(oc4ccccc43)c2=O)cc1 -1.43%
CCN(C(=O)C1CCCN(c2ncnc3onc(-c4ccc(F)cc4)c23)C1)c1ccccc1 (centres undefined) -8.37%
O=C(O)C1=CC(=C(c2ccc(O)c(C(=O)O)c2)c2ccc(O)c(C(=O)O)c2)C=CC1=O -14.8%
COc1ccc(C(=O)Nc2nnc(S(=O)(=O)N3CCC(C)CC3)s2)cc1OC 8.16%
O=C(c1cccc(F)c1)N1CCC(c2c[nH]c3ccccc23)(c2c[nH]c3ccccc23)CC1 -8.47%
CCOc1ccc(NC(=O)NCCn2nnc3cc(S(=O)(=O)N(C)C)ccc32)cc1 1.75%
CC(C)(C)c1ccc(-c2nc(S(=O)(=O)c3ccccc3)c(N3CCOCC3)o2)cc1 -38.3%
O=C(NCC1CCCO1)c1c[nH]c2ccc(S(=O)(=O)Nc3ccc(F)cc3F)cc2c1=O (centres undefined) -1.21%
CCOC(=O)C1=C(CN2CCCCC2)NC(=O)NC1c1ccc(C)cc1 (centres undefined) -18.1%
COc1cccc(CNS(=O)(=O)c2ccc(N3CCCCS3(=O)=O)cc2)c1 12.8%
CC1CCCCN1Cc1c(O)ccc2c(=O)c(-c3ccccc3)coc12 (centres undefined) -3.71%
CCOc1ccc(C(CC(=O)Nc2cc(C)c(Cl)cc2OC)N2Cc3ccccc3C2=O)cc1OC (centres undefined) -1.34%
COc1ccc(C2CC(=O)c3c([nH]c(C(=O)OC4CCCCCC4)c3C)C2)cc1OC (centres undefined) 15.1%
COc1cccc(CNC(=O)CCCn2nc(C)n3c(cc4sccc43)c2=O)c1 -7.62%
COc1ccc(Cn2ccc3nc(C)c(C(=O)NCc4ccc(OC)cc4OC)cc3c2=O)cc1 -11.9%
COC(=O)c1ccccc1NC(=O)CCc1c(C)nc2c(c(C)nn2-c2ccccc2)c1C -10.5%
COc1ccc(-c2cc(C(=O)N3CCN(c4ccc(F)cc4)CC3)no2)cc1OC 34%
Cc1ccc(N2CC(NC(=O)c3ccco3)CC2=O)cc1C (centres undefined) 2.59%
CC(C)COc1ccc(-c2nonc2NC(=O)c2ccc(F)cc2)cc1 8%
O=C(NCCc1ccccc1)c1ccc(CSc2nc3ccncc3n2Cc2ccccc2F)cc1 -8.62%
CCN(C(=O)c1nn(-c2ccc(C)cc2)c(=O)c2c1c1ccccc1n2C)c1ccc(F)cc1 -3%
Cc1cccc(OCC(=O)N(Cc2ccc(C(C)C)cc2)Cc2ccco2)c1C -21.7%
COc1ccc(NC(=O)C(C)n2c(C)c3cnn(-c4ccccc4)c(=O)c3c2C)cc1Cl (centres undefined) -10.7%
CCOC(=O)c1cc(-c2ccc(F)cc2)n(CCC(=O)NCc2ccccc2OC)c1C -22.8%
CCOC(=O)c1cnc2c(C)cc(Cl)cc2c1NCCc1ccc(OC)c(OC)c1 -1.91%
O=C(Cn1ncc2c([nH]c3ccccc32)c1=O)NCc1cccc(Cl)c1 -4.83%
